The supplement of paper PMC10126150
Values marked as one replicate rest on one cluster of the flow cell; about a third of the high ones do not repeat.

Tested on: ATP
Experiment: switch fluorescence ratio, 500 uM ATP over buffer (Cy3 cluster intensity, sum of 5 cycles each) (fold (ratio)); higher = stronger signal-on switching upon ATP binding; sequences stand for … in TCGTCGGCAGCGTCAGATGTGTATAAGAGACAGTTTTTTTTTTTTTTTTTTTTTTTTT…TC
Settings: aptamer strand: ATP DNA aptamer (quencher-CACCTGGGGGAGTATTGCGGAGGAAGG + anchor), 100 nM annealed; ATP concentration: 500 uM; one replicate
Procedure, shortened: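 After annealing to 100 nM quencher-labelled ATP aptamer, Cy3-labelled switching-strand clusters on a modified Illumina MiSeq flow-cell were imaged in selection buffer. A second image followed after 15 min with 500 uM ATP at 22 °C, and five such buffer/ATP cycles were done, each separated by NaOH stripping and re-annealing. The fluorescence ratio, averaged per switch-domain sequence, is summed target-cycle over summed buffer-cycle Cy3 intensity per cluster, with clusters outside 100-1000 RFU excluded.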
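Further: ATP exposure 15 min at 22 °C before imaging.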

Sequence | switch fluorescence ratio
AGCCATTTGG | 1.04
TCACGATTAC | 1.47
GCAAAAGCA | 1.03
GCGGTGAGTA | 0.967
ATACCAGTGG | 0.965
TAATATTGAC | 1.01
TTTCATACAC | 1.06
GCTGTGATTT | 1.02
GCGTGTTCTA | 0.964
GGTGGTCAAT | 1.01
AAACCACTGC | 1.05
CATCCGTGAG | 3.72
AGAAATAGGC | 1.05
ATTGTCTCCT | 1.03
CCTGCCGGTT | 1.02
ACCAATTTG | 1.03
AGCCCAGAAG | 1.03
TGACTGCTGC | 1.06
CACGTGTAGA | 1.04
GCTTGTTTCC | 0.988
CCAAGCTTAC | 4.55
TGCGAGTGGT | 1.02
ATCTAACATG | 0.966

Sequence | switch fluorescence ratio
TTTTTTAC | 1.03
CATCCTCAGT | 1.4
GGATTATCGT | 1.03
TGCATGGAAT | 0.979
CTCCAAAAAG | 1.1
GAGGCTTAGT | 1.04
TAGCGTATAT | 1.04
AACCACATG | 1.05
CTTAGAAACC | 1.05
ATAGCTCGAA | 1
ACTTGCGCTT | 1
TGTGGTTGAT | 1.01
CAAATAGTAT | 0.997
GATCGAATGG | 1.04
ATGGAGGAGG | 0.98
TTTGCTAATG | 1
ATCGTGTCTA | 0.982
TGGTATACGG | 0.993
TGACACGCA | 1.11
TGCTCGTTT | 1.06
CTAGGACACT | 1.03
GAGCCTATCG | 0.941
GGGGTGTGTC | 0.975

Sequence | switch fluorescence ratio
TTTGAAGTCG | 1.02
AGTAGGGAA | 1.02
TTGATGTAGG | 0.969
AACGTGGATG | 1.04
AGCACGCAAT | 5.73
GGGGCATACG | 1.08
TTATAGGCTT | 0.961
CCGTGAGAAC | 1.76
TAGTCCTGC | 1.05
GAACGAATG | 0.979
GTCGACCCGG | 1.01
GTTTGGAGCC | 1.01
GTAAGGTGCT | 1.1
TGGGGAGTAG | 0.962
TGTCTAAGTA | 0.966
TTGCCCACA | 1.02
CCTGAGGTGA | 0.959
CTGGCACATC | 1.2
TACGTTGGAT | 0.977
GAGCAAAGCC | 0.99
AGGCGAGTAT | 0.984
GCCACCATTC | 1.04
GCCTCATTTG | 1.07

Sequence | switch fluorescence ratio
ATGAGTTTCC | 1.02
ATTGGGTGCT | 1.04
CAGGGCCGTT | 0.979
AATTGCCGG | 1.05
GGACCGTTTC | 0.957
TAGGATCCAG | 0.959
TGCTTTACGT | 1.01
GTTGTTTGGC | 1.01
ACCAGCGGGG | 1.06
ATATGCAGTG | 0.977
AACAATTGAA | 1.01
AAGGAAAAT | 1.04
ATGTCACGGA | 1.04
TATTAGTGCA | 1.03
CATTCCTACG | 4.54
GGTAGCGCGT | 0.997
TGCGATAA | 2.2
AGCGCAACAA | 1.38
TTAATCTCGT | 0.954
CATGACTACG | 0.939
GCTGTAACGT | 0.952
CTGGAA | 1.07
CTGTACATG | 0.964

Sequence | switch fluorescence ratio
CTCAGGTACT | 1.08
GTTTCTCCT | 1.04
GGCGACTGG | 0.974
CGATTCCATC | 0.975
CGGCAACGCT | 1.01
TATCCGTGTA | 1.04
ACGCCTTTTT | 1.01
ATTCTGGCCA | 0.981
AGCTTGGCTG | 0.972
CCAAATCCCA | 0.976
GGTAGCGTTT | 0.941
CGGACATATC | 1.17
CGTACCAAAC | 2.06
AAACGCGCGC | 1.03
CACGGCCTAA | 0.979
CTTCTCCCGG | 1.56
CATAGAGCGT | 0.942
TGGAAAGATA | 1.06
TCCGGAAAGG | 1.32
TAGGGTCAGT | 0.988
GCTTGGCAAT | 1.13
CTAGGACTGT | 0.998
GGTGATGAGC | 1.04

Sequence | switch fluorescence ratio
TTGGTTTCAG | 0.974
TGTTCGATCG | 0.998
CGGATAGGGC | 1.01
TGCATTGAGT | 1.01
ATCCGTTTGC | 1.44
CGGCTGAGG | 0.975
GTGGATTGGG | 0.992
TAGGCCGTGT | 0.84
AGTCCCCATG | 1.21
GGTAGTACT | 1.02
ACGTTAAAGG | 1.11
TTATAAAATC | 1.01
CGGCGATTTC | 1.14
TCCTCATCTT | 1.05
GATTAATCAC | 1.02
TTAGAATTTT | 1.03
CCAAGTAGGG | 1.06
GAACCAGAGT | 1.01
GGGCTGTGGT | 0.996
CCGTTGTAAA | 1.12
AAGTATGTAC | 1.02
TACAGCTTAG | 1.04
AGAAGTGTGC | 0.973

Sequence | switch fluorescence ratio
GACGATCTTC | 1
TGATTTGAAT | 1.13
TGAAGCCATA | 1.08
GAAAGTTTGA | 1.07
AGGCATCATC | 1.05
ACACACCAGC | 1.15
GCCGTGGTAT | 1
GGCATACTTC | 1.06
TTATTTAGCC | 0.91
GAGGCTCCGG | 0.977
ACAATTAAC | 1.06
CCAGCGTGGG | 1.07
TTATCTCATC | 0.968
CGCCGAGGAT | 1.05
TATGGGAGCG | 0.977
TCGAGCTAAA | 1.16
AGCTGGGTGA | 1.03
CCTTGTGAAC | 1.08
CAACATATTC | 1
CTGACAATT | 1.12
